{"source": "the supplement of paper PMC11417369", "note": "The list shows a part of the results.", "data": [{"system": "PfSIP2 AP2 domain 1 (GST-tagged)", "assay": "gcPBM binding intensity (ln(normalized median fluorescence intensity)); higher = stronger DNA binding", "method_in_brief": "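DNA-binding domains from P. falciparum, fused to GST and produced in E. coli, were put on an Agilent 4 × 180k double-stranded probe array for 1 h in 1× PBS holding 1% milk, 0.2 mg/ml BSA, 0.5% salmon testes DNA and 0.03% Triton X-100. Probes were primer-extended, 36 bp long and drawn from intergenic genomic regions, with negative controls included. After Alexa488 anti-GST antibody detection and a 488 nm scan, binding intensity was set as the highest Masliner-normalised natural-log median intensity across replicate spots of either probe orientation.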", "values": [{"sequence": "GGGAAAAAATGAGGTCGTACATTTTTCATCACAAAT [XGTACX_site8920]", "gcPBM binding intensity (ln)": 6.96}, {"sequence": "AATGAATGTACATACGCATGTACTTGACTAAATTAT [TGCATGCA_site436]", "gcPBM binding intensity (ln)": 7.01}, {"sequence": "TGGTAATACCCATACACACACACATACCCATATATA [CACACA_site5509]", "gcPBM binding intensity (ln)": 6.99}, {"sequence": "ATAAATAAAACAACAGTGCAATAAAATTAGTTGAGG", "gcPBM binding intensity (ln)": 7.5}, {"sequence": "TTTTTTATGAGGTGGTGTACTTTTTTTTTTTTCTTT [XGTACX_site8550]", "gcPBM binding intensity (ln)": 7.29}, {"sequence": "CAAGAAACAGTGATACGTACACATATATATATATAT [XGTACX_site3229]", "gcPBM binding intensity (ln)": 9.25}, {"sequence": "TTCAAATAAATAGTAGTGCATATTTATTAATGTAAA", "gcPBM binding intensity (ln)": 9.3}, {"sequence": "ATTAAAGAGAGACATCAACACACATACGTATGTATA [CACACA_site8393]", "gcPBM binding intensity (ln)": 6.94}, {"sequence": "TAATATATTATAAACACATGCACATTAATAATAACT [TGCATGCA_site708]", "gcPBM binding intensity (ln)": 9.16}, {"sequence": "TATTTTTTAAAAAAACGTACAAACATAATAAAAATA [XGTACX_site1857]", "gcPBM binding intensity (ln)": 7.52}, {"sequence": "ATAGACATTTTACTTTGTACATATAAACATATATAT [XGTACX_site2733]", "gcPBM binding intensity (ln)": 7.11}, {"sequence": "TATATATATATATATGTGCACATTTTATTAAAATGT", "gcPBM binding intensity (ln)": 9.6}, {"sequence": "ATATGAAACATGAAGGTGCATAATGTGTATATTTAT", "gcPBM binding intensity (ln)": 10.8}, {"sequence": "ACATAAATATATTTTTCACACATCATTAGTTATGAA [CACACA_site4724]", "gcPBM binding intensity (ln)": 7.03}, {"sequence": "AAGGTATGATTAATCACACACATAAATATAAATACA [CACACA_site5464]", "gcPBM binding intensity (ln)": 6.99}, {"sequence": "AAGCTTCATTAATATACACACATATATGTGTATATT [CACACA_site7693]", "gcPBM binding intensity (ln)": 6.89}, {"sequence": "AATAAAGAAGAAGAAAGTACACATTTCACAAAGGGG [XGTACX_site1308]", "gcPBM binding intensity (ln)": 7.29}, {"sequence": "GATATATGTATAATAACGCACACTACAAAAATAAAA [CACACA_site2100]", "gcPBM binding intensity (ln)": 7.41}, {"sequence": "ATAAAATATAGGTATGCACACACATATACTTCTGTG [CACACA_site8398]", "gcPBM binding intensity (ln)": 9.39}, {"sequence": "TATATAATACGAATTTGTACATATTAAATAAATTAT [XGTACX_site93]", "gcPBM binding intensity (ln)": 6.84}, {"sequence": "GTTAGTTTTAGTTCATGTACATAATAGAAAATATAT [XGTACX_site7125]", "gcPBM binding intensity (ln)": 7.63}, {"sequence": "TTTTTTCTTTTCAAGGTGCTTTATAAGAAAAAGGGA [GTGCAC_site9858]", "gcPBM binding intensity (ln)": 7.79}, {"sequence": "AAAAAAAAAAAAAACACACACACACCCAAATACATA [CACACA_site708]", "gcPBM binding intensity (ln)": 7.46}, {"sequence": "TATTTTATCATTTGCACACGCACACCCACATAAAAA [CACACA_site354]", "gcPBM binding intensity (ln)": 8.03}, {"sequence": "TATATTAAAACAAGCACACAATCGCATAATATCCTT [CACACA_site3210]", "gcPBM binding intensity (ln)": 6.71}, {"sequence": "AGTATTATATTTTCTTGTACACATGTAAAATACCTC [XGTACX_site1359]", "gcPBM binding intensity (ln)": 7.17}, {"sequence": "AAAAAAAAAAAAAAAACACACATATATGTATATATA [CACACA_site3276]", "gcPBM binding intensity (ln)": 7.43}, {"sequence": "CAATTACGCAGGAATGCACACAATAATAAAAAAAAT [CACACA_site3513]", "gcPBM binding intensity (ln)": 7.43}, {"sequence": "ATATATATATATATATGTACATATTTTTTATTTTAT [XGTACX_site5761]", "gcPBM binding intensity (ln)": 9.29}, {"sequence": "TATTATTCAAATAAAAGAAAAATATATATATTATAT [GTGCAC_negctrl_site273]", "gcPBM binding intensity (ln)": 7.28}, {"sequence": "ATATGTTACTTTACATAAAGAAGAAGAAGAAGAAAA [CACACA_negctrl_site985]", "gcPBM binding intensity (ln)": 6.63}, {"sequence": "TTTCAAAAAGGAAGAAAAAAAAAAAAAAAAAATATA [XGTACX_negctrl_site514]", "gcPBM binding intensity (ln)": 6.6}, {"sequence": "TCCCCCTTTTTTTGATTTTTATCTTAATTCTAAAAG [GTGCAC_negctrl_site541]", "gcPBM binding intensity (ln)": 7.05}, {"sequence": "AAACATTTAAATGGAAACACAGAAAAATGAAAAATG [CACACA_negctrl_site457]", "gcPBM binding intensity (ln)": 7.12}, {"sequence": "TTTTTTTTTTGTAATACACACCACTATATGTTATTT [CACACA_site5087]", "gcPBM binding intensity (ln)": 6.84}, {"sequence": "ATATATATATATACATGTACATATATACATTATATT [XGTACX_site936]", "gcPBM binding intensity (ln)": 9.54}, {"sequence": "ATGTTATATTTTTTTATACACACTGGAATATATAAA [CACACA_site215]", "gcPBM binding intensity (ln)": 7}, {"sequence": "TATATATATATATATTGTACTTTATTTTATATATTC [XGTACX_site5697]", "gcPBM binding intensity (ln)": 9.35}, {"sequence": "ATTATTATTGTCAAATGTACAAGCTAATAATTTTTA [XGTACX_site7167]", "gcPBM binding intensity (ln)": 6.94}, {"sequence": "ATTTATAATGAGTATACACACATATATAGATTTGCT [CACACA_site4517]", "gcPBM binding intensity (ln)": 6.88}, {"sequence": "TAAAAAATAAAATACACACACATATTTATATTTATA [CACACA_site6737]", "gcPBM binding intensity (ln)": 6.87}, {"sequence": "AAAAAAAAAAAAAACATACACACAAGAACAAAATAT [CACACA_site3003]", "gcPBM binding intensity (ln)": 7.28}, {"sequence": "CAACAACATTTTTCATGTACATATATTTTATAATAT [XGTACX_site519]", "gcPBM binding intensity (ln)": 7.38}, {"sequence": "TTTTCTTAATATTTCGTTTTACATAAACCTTTTAAA [CACACA_negctrl_site660]", "gcPBM binding intensity (ln)": 7.06}, {"sequence": "AATATAATATTATATAGTACATATTTCTTTTATTTT [XGTACX_site22]", "gcPBM binding intensity (ln)": 6.82}, {"sequence": "TTTTACATCATATATAGTACATATATTATACATATA [XGTACX_site8590]", "gcPBM binding intensity (ln)": 7.03}, {"sequence": "TATATATATATAAGTAGTACAATAATATATTATTTT [XGTACX_site6450]", "gcPBM binding intensity (ln)": 8.88}, {"sequence": "ATATATTTTCATTTTACACACAAATAAAGATAATTT [CACACA_site2996]", "gcPBM binding intensity (ln)": 7.27}, {"sequence": "AAAATAAATAAAAAAAGTACATATATAATTTATAAA [XGTACX_site2411]", "gcPBM binding intensity (ln)": 7.01}, {"sequence": "TCTTGATACAAACATTTAAATAAATAAATAAAAAAA [GTGCAC_negctrl_site41]", "gcPBM binding intensity (ln)": 7.1}, {"sequence": "AAAATACACGCATACACACACACACCGACACATATA [CACACA_site4523]", "gcPBM binding intensity (ln)": 7.19}, {"sequence": "TGTTGTGATATATTAAAATCGTCCCTTATAATTTTA [GTGCAC_negctrl_site595]", "gcPBM binding intensity (ln)": 6.79}, {"sequence": "TAATATTATATTTATAGTACATATAATATATATATA [XGTACX_site2964]", "gcPBM binding intensity (ln)": 8.62}, {"sequence": "GAACACTAATAATGTTGTACACGTAATTATATATTT [XGTACX_site777]", "gcPBM binding intensity (ln)": 7.13}, {"sequence": "AAACACACACACAAATGTACATATATATATATATTT [XGTACX_site5090]", "gcPBM binding intensity (ln)": 7.45}, {"sequence": "TATAATATATGTATATGTACTTATGTTGAGAAACAT [XGTACX_site2117]", "gcPBM binding intensity (ln)": 6.95}, {"sequence": "TACCTAATATGTTATACACACATTATGAGTACATAT [CACACA_site2466]", "gcPBM binding intensity (ln)": 7.08}]}]}
